In PubChem BioAssay AID360 (National Center for Advancing Translational Sciences (NCATS), 2006):
The whole screen tested about 48,000 compounds, of which about 550 (1.1%) were called active. Not shown: some 4% with an inconclusive outcome. Cut-off read from the data, not from the text of the source: active = potency below about 15 µM; inconclusive = mostly about 16 µM to 33 µM; inactive = weaker than that. Some of the results follow.

biological target: Lysosomal acid glucosylceramidase (Homo sapiens) (UniProt P04062); assay: Glucocerebrosidase; conditions: purified enzyme, resorufin glucoside fluorescence (screen aimed at inhibitors), 20 min;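 note: the screen sought inhibitors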
Chain of UniProt P04062 (P04062 whole entry, looked up): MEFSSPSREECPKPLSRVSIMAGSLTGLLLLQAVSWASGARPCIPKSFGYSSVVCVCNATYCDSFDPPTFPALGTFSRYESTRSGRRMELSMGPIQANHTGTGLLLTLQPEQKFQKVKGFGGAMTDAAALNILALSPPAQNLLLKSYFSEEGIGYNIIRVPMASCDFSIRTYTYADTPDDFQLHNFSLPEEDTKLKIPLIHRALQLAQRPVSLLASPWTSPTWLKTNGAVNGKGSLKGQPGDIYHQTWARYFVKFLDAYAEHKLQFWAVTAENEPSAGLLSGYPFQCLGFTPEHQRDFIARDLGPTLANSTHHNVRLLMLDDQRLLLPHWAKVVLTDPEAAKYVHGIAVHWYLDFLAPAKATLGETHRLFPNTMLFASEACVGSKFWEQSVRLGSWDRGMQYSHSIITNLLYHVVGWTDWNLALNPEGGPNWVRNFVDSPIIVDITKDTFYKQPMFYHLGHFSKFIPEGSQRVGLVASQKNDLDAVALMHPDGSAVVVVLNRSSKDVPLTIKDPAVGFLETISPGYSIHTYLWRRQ
Method in brief: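 Normal human glucocerebrosidase (0.2 nM final) was assayed with resorufin β-D-glucopyranoside (30 uM final) in 50mM citric acid/KH2PO4, 10mM sodium taurocholate, 0.01% tween-20, pH 5.9. Compounds were titrated; fluorescence (Ex 548, Em 600) read after 20 min at RT.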
Potency is the fitted concentration of half-maximal effect.

SMILES	Potency
CC1=CC(C)(C)N2C(=O)C3(SCC(=O)N3c3ccc(O)cc3)c3cc(C)cc1c32 (configuration not stated)	inactive: > 76.9 µM
Cc1c(C(=O)N2CCOCC2)[nH]c2ccc(OCc3ccccc3)cc12	inactive: > 76.9 µM
O=C(Nc1c2c(nn1-c1ccc(Cl)cc1)CS(=O)(=O)C2)c1ccc2c(c1)OCO2	inactive: > 76.9 µM
COC(=O)c1ccccc1NS(=O)(=O)c1ccc(O)c(C(=O)O)c1	inactive: > 76.9 µM
CCCCN1CC(O)=C(c2nc3ccccc3[nH]2)C1=N	inactive: > 76.9 µM
Cc1ccc(S(=O)(=O)Nc2ccccc2C(N)=O)cc1	inactive: > 76.9 µM
CC1CN(C(=O)c2cn3ccccc3n2)CC(C)O1 (configuration not stated)	inactive: > 76.9 µM
O=S(=O)(Nc1cccc(C(F)(F)F)c1)c1cccnc1	inactive: > 76.9 µM
O=C(c1ccccn1)N(Cc1cc2ccccc2[nH]c1=O)C1CCCCC1	inactive: > 76.9 µM
Cc1ccc2cc(C)c(SCC#N)nc2c1	inactive: > 76.9 µM
COc1cc(-c2c(C#N)c(N)nc3c2CCCC3)cc(OC)c1OC	inactive: > 76.9 µM
CN(C)CCCNc1c2c(c(C#N)c3nc4ccccc4n13)CCC2	inactive: > 76.9 µM
Cc1cc(NC(=O)CCCC(=O)N(CC(=O)NCCc2ccccc2)Cc2ccc(F)cc2)no1	inactive: > 76.9 µM
CC(=O)Cc1nsc(NC(=O)c2ccccc2)n1	inactive: > 76.9 µM
NC(=O)C(Cc1ccccc1)NS(=O)(=O)c1ccc(N2CCCC2=O)cc1 (configuration not stated)	inactive: > 76.9 µM
Cc1cc(C)n2c(SCc3c(C)noc3C)nnc2n1	inactive: > 76.9 µM
CCN1C(=O)C(O)(CC(=O)c2cc(C)ccc2C)c2ccccc21 (configuration not stated)	inactive: > 76.9 µM
CC1(C)CC(C(=O)Nc2nccs2)CCO1 (configuration not stated)	inactive: > 76.9 µM
COC(=O)C(C)NS(=O)(=O)c1ccc(NC(C)=O)cc1 (configuration not stated)	inactive: > 76.9 µM
Cn1c(=O)[nH]c(=O)c2c1nc(CN1CCOCC1)n2CCc1ccccc1	inactive: > 76.9 µM
CC(c1ccco1)N(C(=O)C12CC3CC(CC(C3)C1)C2)c1ccccn1 (configuration not stated)	inactive: > 76.9 µM
COc1cccc(-c2cc(C(=O)Nc3c(C)nn(Cc4ccccc4C)c3C)no2)c1	inactive: > 76.9 µM
CCOC(=O)N1CCN(Cc2nc3c(c(=O)n(C)c(=O)n3C)n2Cc2cccc3ccccc23)CC1	inactive: > 76.9 µM

SMILES	Potency
Cc1cc(C(F)(F)F)c2c(N)c(C(=O)Nc3cc(C)on3)sc2n1	inactive: > 76.9 µM
COc1ccc(CNc2nc3nc(C)cc(C)n3n2)cc1OC	inactive: > 76.9 µM
CCOC(=O)c1c(C)[nH]c(C(=O)CN2C(=O)NC(C)(c3ccc(C)cc3)C2=O)c1C (configuration not stated)	inactive: > 76.9 µM
CN(CC(=O)NCCCN1CCOCC1)S(=O)(=O)c1ccc(Br)cc1	inactive: > 76.9 µM
Cc1cccc(NC(=O)N2CCC(c3nc4ccccc4o3)CC2)c1	inactive: > 76.9 µM
c1cn(CCCNC2=NCCCCC2)cn1	inactive: > 76.9 µM
CCOc1cccc(-c2nnc3sc(COc4ccc(C)cc4)nn23)c1	inactive: > 76.9 µM
O=C(c1ccccc1)N1CCN(S(=O)(=O)N2CCCCC2)CC1	inactive: > 76.9 µM
O=C(CSc1n[nH]c(-c2cccs2)n1)NCc1cccs1	inactive: > 76.9 µM
c1ccc(C2=Nn3c(nnc3-c3cccnc3)SC2)cc1	inactive: > 76.9 µM
CC(=O)c1nc(N2C(=O)C3CC=C(C)CC3C2=O)sc1C (configuration not stated)	inactive: > 76.9 µM
Nc1nnc(SCc2ccc3c(c2)OCO3)s1	inactive: > 76.9 µM
COc1ccc(Cl)cc1C(=O)Nc1ccccc1N1CCN(C(=O)C(C)C)CC1	inactive: > 76.9 µM
COc1ccc(CCN2C(=O)CC(N3CCN(S(=O)(=O)c4ccccc4)CC3)C2=O)cc1 (configuration not stated)	inactive: > 76.9 µM
Cn1c(=O)oc2cc(S(=O)(=O)N3CCN(c4ccccc4)CC3)ccc21	inactive: > 76.9 µM
O=C(O)c1ccc(NC(=O)c2cccs2)cc1	inactive: > 76.9 µM
COc1ccc(-c2nc(N3CCCC3)nc3nn4c(C)cc(C)nc4c23)cc1	inactive: > 76.9 µM
CCOC(=O)N1CCC(NC(=O)c2cc(C(=O)Nc3ccc(OCC)cc3)ccc2CO)CC1	inactive: > 76.9 µM
O=C(CSc1ncn(-c2ccccc2)n1)Nc1ccc(Br)cn1	inactive: > 76.9 µM
CC1CCCCN1C(=O)c1cc(F)c(F)cc1Cl (configuration not stated)	inactive: > 76.9 µM
Cc1nc(NC(CC(C)C)C(=O)O)c2nc(C)oc2n1 (configuration not stated)	inactive: > 76.9 µM
COc1ccc(C(=O)N(CCN2CCOCC2)CC(=O)NC2CCCC2)cc1OC	inactive: > 76.9 µM
O=S(=O)(NCc1cn2ccsc2n1)c1cccs1	inactive: > 76.9 µM

SMILES	Potency
O=C(NCc1ccccc1)c1c(F)c(F)c(F)c(F)c1F	inactive: > 76.9 µM
CC1CCCCN1C(=O)Nc1cccc(Cl)c1 (configuration not stated)	inactive: > 76.9 µM
[O-][n+]1onc2c1CCC1N(O)C(c3ccccc3)CC21O (configuration not stated)	inactive: > 76.9 µM
COc1cccc(NC(=O)Cn2c(=O)n(CCCC(=O)NCc3ccco3)c(=O)c3ccccc32)c1	inactive: > 76.9 µM
CC1CC(C)CN(CCCNC(=O)c2cn(C)c3ccc(S(=O)(=O)N4CCCC4)cc3c2=O)C1 (configuration not stated)	inactive: > 76.9 µM
O=C(Nc1ccc(F)cc1)N(CCCN1CCOCC1)Cc1cc2cc3c(cc2[nH]c1=O)OCCO3	inactive: > 76.9 µM
COCCNC(=O)c1cc(-c2ccc3c(c2)OCO3)on1	inactive: > 76.9 µM
COc1ccc(S(=O)(=O)NCC(c2cccnc2)N2CCN(c3ccccc3)CC2)cc1C (configuration not stated)	inactive
Cc1ccccc1NC(=O)C(C#N)Cc1cccnc1 (configuration not stated)	inactive: > 76.9 µM
Cc1ccc(-n2c3c(cc(C(=O)O)c2=O)C(=O)CC(C)(C)C3)cc1	inactive: > 76.9 µM
CCCC(c1nnnn1C1CCCC1)N1CCN(C(=O)c2ccco2)CC1 (configuration not stated)	inactive: > 76.9 µM
COC(=O)c1c(NC(=O)c2ccco2)sc(C)c1C	inactive
O=C(CCN1C(=O)c2cccnc2C1=O)NC1CCCCCC1	inactive: > 76.9 µM
Nc1cc(-c2ccco2)no1	inactive: > 76.9 µM
O=C1CCc2cc(S(=O)(=O)NCCC(=O)NC3CCN(Cc4ccccc4)CC3)ccc2N1	inactive: > 76.9 µM
Cc1noc(COc2ccccc2OCC(N)=O)c1Cl	inactive: > 76.9 µM
COc1ccc(-c2nc(CS(=O)CC(=O)NCCCN3CCCC3)c(C)o2)cc1OC (configuration not stated)	inactive: > 76.9 µM
COc1cccc2cc(-c3cn4cccc(C)c4n3)c(=O)oc12	inactive: > 76.9 µM
O=C(O)c1ccc2c(c1)ncn2C1CCCCCC1	inactive: > 76.9 µM
CCn1c(SCC(=O)Nc2nnc(C)s2)nnc1-c1ccncc1	inactive: > 76.9 µM
COc1ccc(C(=O)CSc2nnc(-c3cccnc3)n2Cc2ccco2)cc1	inactive: > 76.9 µM
CS(=O)(=O)Nc1nnc(Cc2ccccc2)s1	inactive: > 76.9 µM
O=C1C2C3C=CC([C@@H]2C(=O)N1c1nccs1)C31CC1 (some centres not stated)	inactive: > 76.9 µM

SMILES	Potency
COc1nc(C#N)nc(N(C)C)n1	inactive: > 76.9 µM
COc1ccc(C2c3c(-c4ccccc4O)n[nH]c3C(=O)N2CCc2ccc(OC)c(OC)c2)cc1 (configuration not stated)	inactive: > 76.9 µM
Nc1nnc(SCC(=O)N2CCc3ccccc32)n1-c1ccccc1	inactive: > 76.9 µM
O=C(COc1cccc2cccnc12)N1CCc2ccccc2C1	inactive: > 76.9 µM
Cc1ccc2nsnc2c1S(=O)(=O)N(Cc1ccco1)Cc1cc2cccc(C)c2[nH]c1=O	inactive: > 76.9 µM
CC(C(=O)Nc1ccccc1C(=O)N1CCCC1)n1nnc2ccccc21 (configuration not stated)	inactive: > 76.9 µM
Cc1ccc(/C(COc2ccccc2O)=N\O)cc1	inactive: > 76.9 µM
CCn1c(COc2ccc(Cl)cc2)nnc1SCC(=O)Nc1ccc2c(c1)OCO2	inactive: > 76.9 µM
CSc1cc(C)nc(NC(C)=O)n1	inactive: > 76.9 µM
CCCc1[nH]nc2c1C(c1ccccc1OCC)C(C#N)=C(N)O2 (configuration not stated)	inactive: > 76.9 µM
COc1ccc(CCNC(=O)CCNS(=O)(=O)c2cccc3nsnc23)cc1OC	inactive: > 76.9 µM
CCOC(=O)c1c(-c2ccc(OC)cc2)nc2nonc2c1N	inactive: > 76.9 µM
CCOc1ccc(C(c2nnnn2Cc2ccccc2)N2CCN(C(=O)c3ccco3)CC2)cc1 (configuration not stated)	inactive: > 76.9 µM
O=C(NCc1cccnc1)c1noc2c1CCCCC2	inactive: > 76.9 µM
Cc1cc(S(=O)(=O)NCc2cccnc2)ccc1-n1cnnn1	inactive: > 76.9 µM
Cc1nnc2n(C3CCCCC3)c(=O)c3c4c(sc3n12)CCC4	inactive: > 76.9 µM
COc1ccc(C2CC(C(F)(F)F)n3nc(CO)c(Cl)c3N2)cc1OC (configuration not stated)	active: 5.86 µM
CSc1nsc(SC)c1NC(=O)OC1CCCCC1	inactive: > 76.9 µM
O=CN1CCN(C(C(=O)NC2CCCC2)c2ccc(Cl)cc2)CC1 (configuration not stated)	inactive: > 76.9 µM
O=C(Cn1nc(C(F)(F)F)c2c1CCC2)NC1CCCCC1	inactive: > 76.9 µM
Cc1ccc(S(=O)(=O)N2CCC(C(=O)Nc3nnc(COc4ccccc4)s3)CC2)cc1	inactive: > 76.9 µM
Cn1c(=O)cc(SCC(=O)N2CCCC2)c2ccccc21	inactive: > 76.9 µM
O=C(O)c1ccc(CN2CCCCC2)o1	inactive: > 76.9 µM
